The values below come from article PMC4336329 (PLoS ONE, 2015).

Among all 310,000 compounds or so, about 2,200 (0.71%) showed an effect of 50% or more. Effects have a minus sign here. The list shows a part of the results.

Chain of human ether-à-go-go-related gene (hERG) potassium channel (Q12809 whole entry, looked up): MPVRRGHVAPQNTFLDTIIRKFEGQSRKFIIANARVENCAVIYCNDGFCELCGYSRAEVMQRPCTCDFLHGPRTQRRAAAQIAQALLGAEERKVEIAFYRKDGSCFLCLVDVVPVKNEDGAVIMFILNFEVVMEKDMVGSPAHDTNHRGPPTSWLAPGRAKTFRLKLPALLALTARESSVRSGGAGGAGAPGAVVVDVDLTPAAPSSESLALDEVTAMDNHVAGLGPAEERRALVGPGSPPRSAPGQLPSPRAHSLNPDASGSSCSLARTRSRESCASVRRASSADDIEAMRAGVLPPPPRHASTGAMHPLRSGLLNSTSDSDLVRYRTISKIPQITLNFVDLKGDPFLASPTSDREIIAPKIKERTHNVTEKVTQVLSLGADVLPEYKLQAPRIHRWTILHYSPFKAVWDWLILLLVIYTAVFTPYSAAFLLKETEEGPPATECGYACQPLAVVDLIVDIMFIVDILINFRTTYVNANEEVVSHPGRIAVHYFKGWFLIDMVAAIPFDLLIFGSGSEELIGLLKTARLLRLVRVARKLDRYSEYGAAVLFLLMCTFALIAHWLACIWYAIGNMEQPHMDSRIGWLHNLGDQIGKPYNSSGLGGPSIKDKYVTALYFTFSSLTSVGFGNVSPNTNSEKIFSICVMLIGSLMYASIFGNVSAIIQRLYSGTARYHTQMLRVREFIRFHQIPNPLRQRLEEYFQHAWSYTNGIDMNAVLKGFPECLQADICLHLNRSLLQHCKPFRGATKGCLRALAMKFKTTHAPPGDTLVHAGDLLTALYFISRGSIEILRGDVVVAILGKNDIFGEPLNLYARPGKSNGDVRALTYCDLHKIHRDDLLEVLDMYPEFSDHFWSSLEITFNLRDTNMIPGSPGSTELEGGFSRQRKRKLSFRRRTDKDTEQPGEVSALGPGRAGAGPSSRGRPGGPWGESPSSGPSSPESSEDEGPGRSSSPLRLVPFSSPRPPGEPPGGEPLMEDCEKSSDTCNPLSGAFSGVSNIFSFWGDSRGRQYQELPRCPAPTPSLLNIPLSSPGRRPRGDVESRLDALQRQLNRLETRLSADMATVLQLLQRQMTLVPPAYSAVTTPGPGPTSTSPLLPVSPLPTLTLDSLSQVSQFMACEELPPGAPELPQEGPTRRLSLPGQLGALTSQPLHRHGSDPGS

The experiment has as its target human ether-à-go-go-related gene (hERG) potassium channel (human, UniProt Q12809). Nature of the experiment: primary screen, population patch clamp on CHO cells stably expressing hERG.
With `N#Cc1cc(-c2ccccc2)nnc1Oc1ccccc1Cl`, the “hERG current change (%, negative = inhibition) at 1uM” value amounted to 12.9%. For `CC(=O)Nc1ccc(NC(=O)CSc2nnc(C)n2-c2ccccc2)cc1` the value was 18.9%; for `N#Cc1cccc(NC(=O)c2ccccc2C(=O)O)c1`, 2.51%; for `Cc1ccc(NC(=O)c2nc[nH]c2C(=O)N2CCOCC2)c(C(=O)c2ccccc2)c1`, 7.55%. For `CC1=CN2C(=NC(=O)CC2(C)C(=O)N(CC(=O)NC2CCCC2)Cc2ccc(Cl)cc2)C=C1` (centres unmarked) the value was 1.29%; for `Cl.OC(CN1CCOCC1)Cn1c2c(c3ccccc31)CCCC2` (centres unmarked), 6.75%; for `CCN(Cc1ccccc1)C(=O)C(=O)c1cn(CC(=O)N2CCCC2)c2ccccc12`, 9.09%.

Turning to `CCOc1ccccc1NC(=O)CCCn1cc([N+](=O)[O-])cn1`, the “hERG current change (%, negative = inhibition) at 1uM” value is recorded as 7.46%. On to `COc1ccc(C(=O)NCCCc2ccccc2)cc1OC`, for which the “hERG current change (%, negative = inhibition) at 1uM” value amounted to 11.4%. For `Cc1cc(C(=O)COc2cccc(-n3cnnn3)c2)c(C)n1-c1ccccc1` the value was 13.6%.

For the compound `Cc1ccc(S(=O)(=O)C(C)C(=O)c2ccc3c(c2)OCCO3)cc1` (centres unmarked), the “hERG current change (%, negative = inhibition) at 1uM” value is on record as -12.7%.

Regarding `CCCN(CC(=O)Nc1ccc(F)c(F)c1F)C(=O)c1cc([N+](=O)[O-])ccc1N1CCOCC1`, the “hERG current change (%, negative = inhibition) at 1uM” value was -19.8%.

Regarding `CCN1CCN(c2ccc(NC(=O)c3ccc(Cl)c(N4CCCC4=O)c3)cc2)CC1`, the “hERG current change (%, negative = inhibition) at 1uM” value is on record as 9.94%. For `NC(=O)[C@H]1CC2(CC(c3cccc(NC(=O)COc4ccc(Cl)cc4)c3)=NO2)CN1C(=O)CC(c1ccccc1)c1ccccc1` (some centres unmarked) the value was 8.15%.

Turning to `O=c1c2cccnc2n(-c2ccccc2)n1Cc1ccc(Cl)cc1`, the “hERG current change (%, negative = inhibition) at 1uM” value turned out to be 11.6%.

As for `COc1ccccc1/C=C/CN1CCC(Oc2ccc(C(=O)N3CCCCC3)cc2)CC1`, the “hERG current change (%, negative = inhibition) at 1uM” value was 7.23%.

`CCc1ccc(C(C)NC(=O)c2ccc3c(c2)OCO3)cc1` (centres unmarked): the “hERG current change (%, negative = inhibition) at 1uM” value is recorded as 9%. As for `CC(=O)N1N=C(c2cccc(NS(=O)(=O)c3ccc(C)cc3)c2)CC1c1ccco1` (centres unmarked), the figure is 20.7%; as for `CCOc1ccc(NC(=O)N(C2CCCCCC2)C2CCN(C(C)=O)CC2)cc1`, 8.07%.

With `CCOc1ccccc1NC(=S)NCc1cccn1C`, the “hERG current change (%, negative = inhibition) at 1uM” value amounted to 4.25%. As for `Cc1ccc(C)c(NS(=O)(=O)c2ccc(OCC(=O)N3CCCC3)cc2)c1`, the figure is -3.59%; as for `COc1ccc(NC(=O)CCS(=O)(=O)c2ccc3c(c2)CCN3C(C)=O)cc1`, 18.3%. Consider `c1ccc(OCc2nn3c(-c4cccnc4)nnc3s2)cc1`, for which the “hERG current change (%, negative = inhibition) at 1uM” value is -11.4%.

On to `COc1ccc(CCN(Cc2cccs2)S(=O)(=O)c2ccc(-n3cnnn3)cc2)cc1OC`, for which the “hERG current change (%, negative = inhibition) at 1uM” value is recorded as -17.8%. As for `Cn1cnnc1SC1CCCCC1NS(=O)(=O)c1ccc(Cl)cc1` (centres unmarked), the figure is 12.9%; as for `O=C(Nc1ccnn1C1CCN(Cc2ccc(O)c(Cl)c2)CC1)C1CCCC1`, -6.39%.

As to `O=C(CSc1nnc(C2COc3ccccc3O2)o1)Nc1ccc(F)cc1Cl` (centres unmarked), the “hERG current change (%, negative = inhibition) at 1uM” value is 13.3%. Regarding `Cc1ccc(NC(=O)CN(C)C(=O)c2ccc(Br)o2)cc1`, the “hERG current change (%, negative = inhibition) at 1uM” value is 12.2%.

As to `CCCC(=O)Nc1cccc(-c2cn3ccsc3n2)c1`, the “hERG current change (%, negative = inhibition) at 1uM” value is listed as -4.48%. For `CCn1cc(C(=O)NCCCN(CC(C)C)CC(C)C)c(=O)c2cc(S(=O)(=O)N(C)C3CCCCC3)ccc21` the value was -6.68%; for `Cc1ccc(S(=O)(=O)N2CCOCC2)cc1NC(=O)CNCc1cccnc1.O=C(O)C(=O)O`, 7.98%. For `c1ccc(NC2=NCCN2CC2CCC2)cc1` the value was 6.07%; for `Cc1ccsc1C(=O)C1CCCN(Cc2cnc(N(C)C)s2)C1` (centres unmarked), 1.44%; for `Cc1ccc(-n2c(Cc3ccccc3)n[nH]c2=S)c(C)c1`, 16%. As for `O=C(NCc1ccc(Cl)cc1)c1cccc(NC(=O)c2ccccc2)c1`, the figure is -8.97%; as for `C/C(NC(=O)c1ccccc1)=C1/C(=O)CC2C1C2(C)C` (centres unmarked), 0.19%; as for `CCc1nn(C(C)C(=O)NCCc2ccc(OC)c(OC)c2)c(=O)c2cc3occc3n12` (centres unmarked), 7.83%. Take `Cc1ccc(OCC(=O)N/N=C\c2c(C)n(C)c3ccccc23)c([N+](=O)[O-])c1`: the “hERG current change (%, negative = inhibition) at 1uM” value stood at 14.5%.

For `Cc1ccc(Cn2nc(C)c(NC(=O)CSc3n[nH]c(C)c3[N+](=O)[O-])c2C)cc1`, the “hERG current change (%, negative = inhibition) at 1uM” value worked out at 16.8%. As for `Cc1cc(OCCSc2nnc(-c3cccs3)n2C)ccc1Cl`, the figure is 6.45%. For `Cc1ccc(CCNC(=O)C2CCC(=O)N2C(C)C)cc1` (centres unmarked) the value was 15.7%; for `Cc1noc(C)c1C(=O)Nc1ccc(F)c(F)c1`, 14.5%; for `CCN(CCn1cccn1)Cc1cn[nH]c1-c1ccc(-c2ccccc2)cc1`, 17.6%. For `COC(=O)c1cccc(C(=O)N2CCCC(C(=O)c3ccccc3OC)C2)c1` (centres unmarked), the “hERG current change (%, negative = inhibition) at 1uM” value is -8.92%. For `CCOC(=O)Cc1csc(NC(=O)c2cccc(Cl)c2)n1` the value was 7.67%.

As to `Cc1ccc(OCCCCn2ccnc2C)c(C)c1.O=C(O)C(=O)O`, the “hERG current change (%, negative = inhibition) at 1uM” value came out at 2.16%. In the case of `O=C(COC(=O)c1cnccn1)c1ccc(C2CCCCC2)cc1`, the “hERG current change (%, negative = inhibition) at 1uM” value came out at 8.28%.

As to `Cc1cccc(OCC(=O)O/N=C(\N)Cc2cccs2)c1`, the “hERG current change (%, negative = inhibition) at 1uM” value was 12%. As for `COc1cc(NC(=O)CCc2c(C)[nH]c(=O)c(C#N)c2C)cc(OC)c1`, the figure is 13.3%; as for `CC1CN(c2cc([N+](=O)[O-])ccc2Cl)CC(C)N1` (centres unmarked), -12.7%; as for `CCOc1cc(/C=C2/C(=O)N(c3ccccc3)N=C2C)ccc1OC(=O)c1ccco1`, 9.52%.

Take `CCN(CC)S(=O)(=O)c1ccc(Cl)c(NC(=O)c2ccc(C#N)cc2)c1`: the “hERG current change (%, negative = inhibition) at 1uM” value stood at 8.99%. For `CCN(CC)C(=O)CN1C(=O)C2(OCC(C)(c3ccccc3)CO2)c2ccccc21` (centres unmarked) the value was 2.44%; for `O=c1[nH]c(CSc2nnc3ccccn23)nc2cc(C(F)(F)F)ccc12`, 3.39%; for `CC1CC(NC(=O)C2(C)CC2(Cl)Cl)CC(C)(C)C1` (centres unmarked), 7.26%. Consider `COc1cccc(C(=O)N(CN2CCCC2=O)c2ccccc2OC)c1`, for which the “hERG current change (%, negative = inhibition) at 1uM” value was found to be 1.44%. `CCOC(=O)c1c(/N=C/c2c(O)n(-c3cccc(C)c3)c(=O)[nH]c2=O)sc2c1CCCC2`: the “hERG current change (%, negative = inhibition) at 1uM” value came to 11.9%.

As to `CCN(CC)c1ccc(C(=O)N/N=C/c2ccc(OC)cc2OC)cc1`, the “hERG current change (%, negative = inhibition) at 1uM” value was 32.7%. For `O=C(/C=C/Nc1ccc(OC(F)(F)F)cc1)C(F)(F)F` the value was -18%; for `CCN(CC)CCCNC(=O)C(C)Sc1nc(-c2ccccc2)cc(C(F)(F)F)n1` (centres unmarked), -1.74%; for `COc1ccc(N2C(=O)C(Cl)=C(Nc3ccc(OC)cc3OC)C2=O)cc1`, -0.76%. Consider `COc1ccc(S(=O)(=O)Nc2nncs2)cc1`, for which the “hERG current change (%, negative = inhibition) at 1uM” value is recorded as 7.67%. For the compound `COc1cc2cc(C)c(SCC(=O)N3CCOCC3)nc2cc1OC`, the “hERG current change (%, negative = inhibition) at 1uM” value is 12.3%. Take `COc1ccc(OC)c(-c2nc(C(=O)NCCCN3CCOCC3)cc3c2[nH]c2ccccc23)c1`: the “hERG current change (%, negative = inhibition) at 1uM” value is -21.7%. As for `Cc1ccc(S(=O)(=O)NC(C)(C)CSc2nncn2C)cc1`, the figure is 1.92%; as for `c1ccc(CN2CCc3nc4ccccc4cc3C2)cc1`, 11.2%.

Take `CCCCc1cc(=O)oc2cc(OCC(=O)NC(Cc3c[nH]c4ccc(O)cc34)C(=O)O)ccc12` (centres unmarked): the “hERG current change (%, negative = inhibition) at 1uM” value is 6.8%. As for `CCOc1ccc2nc(NC(=O)C(CC)Sc3nc(C)cc(=O)[nH]3)sc2c1` (centres unmarked), the figure is 8.04%; as for `Cc1nnc(N/N=C/c2ccccn2)[nH]c1=O`, 12.4%.

`CCOc1ccc(NC(=O)C2CCCN(S(=O)(=O)c3c(C)n[nH]c3C)C2)cc1` (centres unmarked): the “hERG current change (%, negative = inhibition) at 1uM” value was 4.92%. Consider `CCC(C)NC(=O)COCc1cc(-c2ccc3c(c2)OCO3)on1` (centres unmarked), for which the “hERG current change (%, negative = inhibition) at 1uM” value came to 10.8%. As for `NC(=O)CSc1nnc(Cc2ccc3c(c2)OCO3)n1C1CCCCC1`, the figure is 1.41%; as for `COc1ccccc1CC1(C)NC(=O)N(CC(=O)N2CCc3ccccc3C2)C1=O` (centres unmarked), -10.1%; as for `CC1=CC(C)(C)Nc2ccc(OC(=O)CN3C(=O)c4ccccc4C3=O)cc21`, 21%. As for `CCC(NC(=O)NCCCn1ccnc1)(C(F)(F)F)C(F)(F)F`, the figure is 13.1%; as for `Cc1cc(-c2ccccc2)nc(N/N=C/c2cccnc2)n1`, 17.4%.

Consider `Cc1oc(-c2ccc(Cl)cc2)nc1CS(=O)CC(=O)NCc1ccccc1` (centres unmarked), for which the “hERG current change (%, negative = inhibition) at 1uM” value is recorded as 10.6%. As for `CCCc1nc2ccc(NC(C)=O)cc2c(=O)n1Cc1cccc(Cl)c1`, the figure is 5.73%. For `COc1cccc(/C=C/C(=O)OCC(=O)Nc2ccc(Cl)c(S(=O)(=O)N(C)C)c2)c1` the value was 16.4%; for `O=C(NCCCCc1ccccc1)c1ccccc1`, 8.89%; for `CCCC(=O)C1=C(O)C(C(=O)OC)C(C)(C)CC1=NCc1ccccc1` (centres unmarked), 10.2%. For `Cc1cc2c(c(=O)n1Cc1cccnc1)C(Cc1ccccc1)C(C#N)=C(N)O2` (centres unmarked) the value was -9.18%. Regarding `Cc1ccc(-c2nn(CCC(=O)Nc3cccnc3)c(=O)c3ccccc23)cc1`, the “hERG current change (%, negative = inhibition) at 1uM” value was -15.2%.

Regarding `Cc1ccc(C(C)C)c(OCc2ccc(C(=O)N/N=C/c3cccc(O)c3O)cc2)c1`, the “hERG current change (%, negative = inhibition) at 1uM” value is recorded as 15.9%. For `Cc1nc(-c2cccc(NC(=O)c3cccs3)c2)cs1` the value was 7.12%; for `CCc1[nH]nc2c1C(Cc1ccccc1)C(C#N)=C(N)O2` (centres unmarked), -17.1%.
